Test results as given in the supplement of paper PMC8183993.
Structures can show the parent of a compound that is named as a salt. ± gives the standard deviation of the averaged measurements. Whole data set: some 3,200 compounds, median “nuclei count (viability) relative to DMSO” near 99, cut for the lowest 2% near 16. The list shows a part of the results.

test system: U2OS; test: nuclei count (viability) relative to DMSO (% of DMSO); higher = more viable cells; settings: 10 µM; 24 h
Experimental: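 Primary image-based screen in U2OS cells: compounds at 10 uM for 24 h, then a 1 h o-propargyl-puromycin (OPP) pulse, click labelling, and high-throughput microscopy. Mean cytoplasmic OPP intensity and nuclei count were normalised to DMSO wells within each plate (DMSO = 100) and averaged over triplicate plates.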

Compound	nuclei count
C#C[C@]1(O)CC[C@H]2[C@@H]3CCC4=CCCC[C@@H]4[C@H]3CC[C@@]21C [Lynestrenol]	105
Cc1ccc(=O)n(-c2ccccc2)c1 [Pirfenidone]	106
CN1CCC(=C2c3ccccc3Sc3ccccc32)CC1 [Pimethixene maleate]	114
N[C@@H](Cc1cc(I)c(Oc2ccc(O)c(I)c2)c(I)c1)C(=O)O [Liothyronine]	97
Cc1cc(CN2CCN(c3c(Br)cnc4nc(-c5ccc(N6CCN(C)CC6)cc5)[nH]c34)CC2)no1	46.25 ± 0.29
COc1ccc(C2CC(=O)c3c(O)cc(OC4OC(COC5OC(C)C(O)C(O)C5O)C(O)C(O)C4O)cc3O2)cc1OC (configuration not stated) [Methyl-Hesperidin]	87.7
CCC(=O)NC1Cc2ccccc2C(c2ccccc2)C1 (configuration not stated)	98.7
Cl/C(=C\n1cncn1)c1ccc(Cl)cc1Cl [Loreclezole hydrochloride]	92
CN(C)C(=O)[C@H](O)[C@H](Cc1ccccc1)NC(=O)c1cc2cc(Cl)ccc2[nH]1	115
CC1(C(=O)O)NCCc2cc(O)c(O)cc21 (configuration not stated) [Salsolinol-1-carboxylic acid]	103
CC(C)(C)c1ccc(S(=O)(=O)/C=C/C#N)cc1	43.7
CN1CCCN=C1/C=C/c1cccc(O)c1 [Oxantel pamoate]	103
CCCCC[C@H](O)/C=C/[C@@H]1[C@H]2C/C(=C/CCCC(=O)O)C[C@H]2C[C@H]1O [Carbacyclin]	97.8
CC(N)CCCC(C)(C)O (configuration not stated) [Heptaminol hydrochloride]	104
CCN1C[C@H](C)n2c(c(O)c3c(=O)n(Cc4ccc(F)c(Cl)c4)nc(C(=O)NC)c32)C1=O	108
O=C(O)c1cc(=O)c2c(Cl)cc(Cl)cc2[nH]1 [5,7-Dichlorokynurenic acid]	97.4
Clc1ccccc1CNCC1CCC(CNCc2ccccc2Cl)CC1 (configuration not stated)	105
CCCNC(=O)Nc1ccc(Oc2ncnc3cc(OC)c(OC)cc23)cc1Cl	104
CN(C)C(=O)C(=O)c1cn(C)c2cc(Cl)c(C(=O)N3CCC(Cc4ccc(F)cc4)CC3)cc12	92.4
O=C(NCCCCN1CCN(c2cccc(Cl)c2Cl)CC1)c1ccc2c(c1)Cc1ccccc1-2	100
C[C@@H](O[C@H]1OCCN(Cc2n[nH]c(=O)[nH]2)[C@H]1c1ccc(F)cc1)c1cc(C(F)(F)F)cc(C(F)(F)F)c1 [Aprepitant]	92.1
C[C@@H](O[C@H]1OCCN(Cc2n[nH]c(=O)[nH]2)[C@H]1c1ccc(F)cc1)c1cc(C(F)(F)F)cc(C(F)(F)F)c1 [Aprepitant (MK-0869)]	92.5
NC(=O)c1ccc(-c2nc(-c3ccccn3)c(-c3ccc4c(c3)OCO4)[nH]2)cc1	102
Cc1cn(-c2cc(NC(=O)c3ccc(C)c(Nc4nccc(-c5cccnc5)n4)c3)cc(C(F)(F)F)c2)cn1 [Nilotinib (AMN-107)]	91.4
Cc1cc2c(s1)Nc1ccccc1N=C2N1CCN(C)CC1 [Olanzapine]	93.8
CN1C(=O)C(Cc2c[nH]c3ccccc23)NC1=S (configuration not stated) [Necrostatin-1]	102

Compound	nuclei count
Cc1cc(C(=O)O)sc1C(N)C(=O)O (configuration not stated)	95.8
COc1cc2c(NC3CCN(C)CC3)nc(N3CCCN(C)CC3)nc2cc1OCCCN(C)C	103
CC=CC1=C(C(=O)O)N2C(=O)[C@@H](NC(=O)[C@H](N)c3ccc(O)cc3)[C@H]2SC1 [Cefprozil hydrate (Cefzil)]	92.9
O=S(=O)(O)Oc1ccc(C(c2ccc(OS(=O)(=O)O)cc2)c2ccccn2)cc1 [Sodium Picosulfate]	104
NC(=O)CC[C@H](N)C(=O)O [L-Glutamine]	90.7
CCn1c(-c2nonc2N)nc2c(C#CC(C)(C)O)ncc(OC[C@H]3CCCNC3)c21	79.3 ± 6.4
CCN(CC)CCOc1ccc(Nc2ncc3cc(-c4c(Cl)cccc4Cl)c(=O)n(C)c3n2)cc1	7.54
Cc1c(O)c(=O)n(-c2ccccc2)n1C [Antipyrine, 4-hydroxy]	101
CC(C)OC(=O)C(C)(C)Oc1ccc(C(=O)c2ccc(Cl)cc2)cc1 [Fenofibrate]	109
Cn1cc(/C=C2\C(=O)Nc3cccnc32)c2ccccc21	87.7
Cc1ccc(NC(=O)C2(c3ccc4c(c3)OC(F)(F)O4)CC2)nc1-c1cccc(C(=O)O)c1	101
CN1CCCN(C(c2ccccc2)c2ccc(Cl)cc2)CC1 (configuration not stated) [Homochlorcyclizine dihydrochloride]	91.1
C[C@@H]1C[C@H]2[C@@H]3CCC4=CC(=O)C=C[C@]4(C)[C@@]3(Cl)[C@@H](O)C[C@]2(C)[C@@]1(OC(=O)c1ccco1)C(=O)CCl [Mometasone furoate]	91.7 ± 6.1
CCOC(=O)c1cnc2c(cnn2CC)c1NN=C(C)C [Etazolate hydrochloride]	106
O=C(O)[C@H](CC(=O)N1C[C@H]2CCCC[C@H]2C1)Cc1ccccc1 [Mitiglinide calcium]	101
C[C@]12CCC3=C4CCC(=O)C=C4CC[C@H]3[C@@H]1CC[C@@]2(O)CC#N [Dienogest]	107
COc1cc2ncnc(-n3nc(-c4ccccn4)nc3N)c2cc1OC	106
Nc1ncnc2c1ncn2C1OC(COP(=O)(O)O)C(O)C1O (configuration not stated) [Adenosine 5'-monophosphate monohydrate]	94.7
CCCCc1ccc2[nH]c(NC(=O)OC)nc2c1 [Parbendazole]	18.3
COc1cc2ncnc(Nc3cccc(Cl)c3)c2cc1OC [AG-1478 (Tyrphostin AG-1478)]	95.9
O=c1oc2cc(O)ccc2s1 [Tioxolone]	97.8
CCc1cccc(CC)c1NC(=O)CN(CC(=O)O)CC(=O)O [Etifenin]	107
CN/C(=N\CCSCc1nc[nH]c1C)NC#N [Cimetidine (Tagamet)]	98.8
CN/C(=N\CCSCc1nc[nH]c1C)NC#N [Cimetidine]	105 ± 5.7
COc1ccc(C2=N[C@@H](c3ccc(Cl)cc3)[C@@H](c3ccc(Cl)cc3)N2C(=O)N2CCNC(=O)C2)c(OC(C)C)c1 [Nutlin-3]	73.8
CC1CCN=C(N)S1 (configuration not stated) [AMT hydrochloride]	114
